Test results taken from the supplement of paper PMC10369915.
The list shows a part of the results. Cut-off read from the data, not from the text of the source: active = 3.2 or more and inactive = the rest. The signal is at background level for most entries.

Target: SHP2 C-SH2 domain E139D
Assay: enrichment score (SH2-bound / input frequency) (ratio); bacterial display of known human phosphotyrosine sites (pTyr-Var adds point mutants) read by sequencing; higher = stronger binding; tyrosines were phosphorylated by kinases first
Details: peptide library: Human pTyr
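Note: displayed peptides selected on beads carrying the immobilized SH2 domain, with library peptides lacking any tyrosine serving as negative controls.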

Enrichment score, inactive:
DIAKDPDYVRKGSAR [VGFR3_HUMAN_1068_YA] 0.954, VITIEDFYSVPRTIL [UBP24_HUMAN_942] 1.14, EQGAAAIYTTQMDDF [VIL1_HUMAN_81] 0.664, AFSRVQIYHNPTANS [VASP_HUMAN_39] 0.544, TSVAESPYSDPEELK [ZAP70_HUMAN_319_YA] 0.955, KKDGLKFYTDPSAFF [WASF3_HUMAN_151_YA] 0.977, ALGADDSYYTARSAG [ZAP70_HUMAN_492] 0.649, EENGEDPYAGSTDEN [XRCC1_HUMAN_515] 1.21, KVVAENAYGQFIGPH [TRXR1_HUMAN_281_YA] 0.745, FGLSRKIYSGDAARQ [TYRO3_HUMAN_681_YA] 0.836, EAEGDEIYEDLMRSE [VAV1_HUMAN_174] 1.38, GQRTQENYEGNEEVS [USP9Y_HUMAN_2541] 1.02, CSRGLERYISQEEGP [ZN318_HUMAN_205] 0.974, EEPAPLSYDSRPRYE [ZO1_HUMAN_1140] 0.677, EQGSNRRYQVSALHT [VW5B1_HUMAN_881] 0.995, KKIYNGDYYRQGRIA [UFO_HUMAN_702] 1.75, DIYKDPDYVRKGSAR [VGFR3_HUMAN_1068] 1.16, AQPAQSIYVGGMMEG [BCR_HUMAN_283_YA] 0.749

Target: SHP2 C-SH2 domain wild-type
Assay: as above
Details: peptide library: Human pTyr

Enrichment score, inactive:
DIAKDPDYVRKGSAR [VGFR3_HUMAN_1068_YA] 0.716, VITIEDFYSVPRTIL [UBP24_HUMAN_942] 0.937, EQGAAAIYTTQMDDF [VIL1_HUMAN_81] 0.538, AFSRVQIYHNPTANS [VASP_HUMAN_39] 0.562, TSVAESPYSDPEELK [ZAP70_HUMAN_319_YA] 0.9, KKDGLKFYTDPSAFF [WASF3_HUMAN_151_YA] 0.943, ALGADDSYYTARSAG [ZAP70_HUMAN_492] 0.383, EENGEDPYAGSTDEN [XRCC1_HUMAN_515] 1.12, KVVAENAYGQFIGPH [TRXR1_HUMAN_281_YA] 0.699, FGLSRKIYSGDAARQ [TYRO3_HUMAN_681_YA] 0.709, EAEGDEIYEDLMRSE [VAV1_HUMAN_174] 1.1, GQRTQENYEGNEEVS [USP9Y_HUMAN_2541] 0.801, CSRGLERYISQEEGP [ZN318_HUMAN_205] 1.12, EEPAPLSYDSRPRYE [ZO1_HUMAN_1140] 0.556, EQGSNRRYQVSALHT [VW5B1_HUMAN_881] 0.748, KKIYNGDYYRQGRIA [UFO_HUMAN_702] 1.7, DIYKDPDYVRKGSAR [VGFR3_HUMAN_1068] 0.841, AQPAQSIYVGGMMEG [BCR_HUMAN_283_YA] 0.665

Target: SHP2 N-SH2 domain L43F
Assay: as above
Details: peptide library: Human pTyr

Enrichment score, inactive:
DIAKDPDYVRKGSAR [VGFR3_HUMAN_1068_YA] 0.86, VITIEDFYSVPRTIL [UBP24_HUMAN_942] 0.733, EQGAAAIYTTQMDDF [VIL1_HUMAN_81] 0.691, AFSRVQIYHNPTANS [VASP_HUMAN_39] 0.758, TSVAESPYSDPEELK [ZAP70_HUMAN_319_YA] 0.875, KKDGLKFYTDPSAFF [WASF3_HUMAN_151_YA] 1.04, ALGADDSYYTARSAG [ZAP70_HUMAN_492] 0.633, EENGEDPYAGSTDEN [XRCC1_HUMAN_515] 0.983, KVVAENAYGQFIGPH [TRXR1_HUMAN_281_YA] 0.568, FGLSRKIYSGDAARQ [TYRO3_HUMAN_681_YA] 0.625, EAEGDEIYEDLMRSE [VAV1_HUMAN_174] 1.13, GQRTQENYEGNEEVS [USP9Y_HUMAN_2541] 1.04, CSRGLERYISQEEGP [ZN318_HUMAN_205] 1.06, EEPAPLSYDSRPRYE [ZO1_HUMAN_1140] 0.679, EQGSNRRYQVSALHT [VW5B1_HUMAN_881] 0.643, KKIYNGDYYRQGRIA [UFO_HUMAN_702] 1.61, DIYKDPDYVRKGSAR [VGFR3_HUMAN_1068] 0.983, AQPAQSIYVGGMMEG [BCR_HUMAN_283_YA] 0.872

Target: SHP2 N-SH2 domain T42A
Assay: as above
Details: peptide library: Human pTyr

Enrichment score, inactive:
DIAKDPDYVRKGSAR [VGFR3_HUMAN_1068_YA] 0.702, VITIEDFYSVPRTIL [UBP24_HUMAN_942] 0.919, EQGAAAIYTTQMDDF [VIL1_HUMAN_81] 0.697, AFSRVQIYHNPTANS [VASP_HUMAN_39] 0.543, TSVAESPYSDPEELK [ZAP70_HUMAN_319_YA] 0.931, KKDGLKFYTDPSAFF [WASF3_HUMAN_151_YA] 1.04, ALGADDSYYTARSAG [ZAP70_HUMAN_492] 0.526, EENGEDPYAGSTDEN [XRCC1_HUMAN_515] 1.41, KVVAENAYGQFIGPH [TRXR1_HUMAN_281_YA] 0.649, FGLSRKIYSGDAARQ [TYRO3_HUMAN_681_YA] 0.587, EAEGDEIYEDLMRSE [VAV1_HUMAN_174] 1.29, GQRTQENYEGNEEVS [USP9Y_HUMAN_2541] 1.59, CSRGLERYISQEEGP [ZN318_HUMAN_205] 1.14, EEPAPLSYDSRPRYE [ZO1_HUMAN_1140] 0.647, EQGSNRRYQVSALHT [VW5B1_HUMAN_881] 0.752, KKIYNGDYYRQGRIA [UFO_HUMAN_702] 1.61, DIYKDPDYVRKGSAR [VGFR3_HUMAN_1068] 0.959, AQPAQSIYVGGMMEG [BCR_HUMAN_283_YA] 0.638

Target: SHP2 N-SH2 domain T52S
Assay: as above
Details: peptide library: Human pTyr

Enrichment score, inactive:
DIAKDPDYVRKGSAR [VGFR3_HUMAN_1068_YA] 0.894, VITIEDFYSVPRTIL [UBP24_HUMAN_942] 0.967, EQGAAAIYTTQMDDF [VIL1_HUMAN_81] 0.644, AFSRVQIYHNPTANS [VASP_HUMAN_39] 0.65, TSVAESPYSDPEELK [ZAP70_HUMAN_319_YA] 0.784, KKDGLKFYTDPSAFF [WASF3_HUMAN_151_YA] 0.984, ALGADDSYYTARSAG [ZAP70_HUMAN_492] 0.584, EENGEDPYAGSTDEN [XRCC1_HUMAN_515] 1.03, KVVAENAYGQFIGPH [TRXR1_HUMAN_281_YA] 0.597, FGLSRKIYSGDAARQ [TYRO3_HUMAN_681_YA] 0.888, EAEGDEIYEDLMRSE [VAV1_HUMAN_174] 1.35, GQRTQENYEGNEEVS [USP9Y_HUMAN_2541] 1.54, CSRGLERYISQEEGP [ZN318_HUMAN_205] 1.16, EEPAPLSYDSRPRYE [ZO1_HUMAN_1140] 0.574, EQGSNRRYQVSALHT [VW5B1_HUMAN_881] 0.931, KKIYNGDYYRQGRIA [UFO_HUMAN_702] 2.3, DIYKDPDYVRKGSAR [VGFR3_HUMAN_1068] 0.936, AQPAQSIYVGGMMEG [BCR_HUMAN_283_YA] 0.765

Target: SHP2 N-SH2 domain wild-type
Assay: as above
Details: peptide library: Human pTyr

Enrichment score, inactive:
DIAKDPDYVRKGSAR [VGFR3_HUMAN_1068_YA] 0.844, VITIEDFYSVPRTIL [UBP24_HUMAN_942] 1.07, EQGAAAIYTTQMDDF [VIL1_HUMAN_81] 0.586, AFSRVQIYHNPTANS [VASP_HUMAN_39] 0.583, TSVAESPYSDPEELK [ZAP70_HUMAN_319_YA] 0.868, KKDGLKFYTDPSAFF [WASF3_HUMAN_151_YA] 1.23, ALGADDSYYTARSAG [ZAP70_HUMAN_492] 0.468, EENGEDPYAGSTDEN [XRCC1_HUMAN_515] 1.22, KVVAENAYGQFIGPH [TRXR1_HUMAN_281_YA] 0.638, FGLSRKIYSGDAARQ [TYRO3_HUMAN_681_YA] 1, EAEGDEIYEDLMRSE [VAV1_HUMAN_174] 1.52, GQRTQENYEGNEEVS [USP9Y_HUMAN_2541] 1.39, CSRGLERYISQEEGP [ZN318_HUMAN_205] 1.16, EEPAPLSYDSRPRYE [ZO1_HUMAN_1140] 0.589, EQGSNRRYQVSALHT [VW5B1_HUMAN_881] 0.871, KKIYNGDYYRQGRIA [UFO_HUMAN_702] 2.22, DIYKDPDYVRKGSAR [VGFR3_HUMAN_1068] 0.832, AQPAQSIYVGGMMEG [BCR_HUMAN_283_YA] 0.761
